Assay results from PMC4336329 (PLoS ONE, 2015).
Hit rate of the full screen: of about 310,000 compounds, about 2,200 (0.71%) showed an effect of 50% or more. The effect is printed as a negative number. Some of the results follow. Where a SMILES comes first, the peptide text is derived from it. [ ]: non-standard residue; d: D form. The star is where a group is joined. ξ: configuration not given here. Cbz = O=C(OCc1ccccc1)*; ξL = CC(C)CC(N)C(=O)O; ξP = O=C(O)C1CCCN1

target: human ether-à-go-go-related gene (hERG) potassium channel (human, UniProt Q12809); experiment: primary screen, population patch clamp on CHO cells stably expressing hERG
Sequence (Q12809 whole entry, looked up): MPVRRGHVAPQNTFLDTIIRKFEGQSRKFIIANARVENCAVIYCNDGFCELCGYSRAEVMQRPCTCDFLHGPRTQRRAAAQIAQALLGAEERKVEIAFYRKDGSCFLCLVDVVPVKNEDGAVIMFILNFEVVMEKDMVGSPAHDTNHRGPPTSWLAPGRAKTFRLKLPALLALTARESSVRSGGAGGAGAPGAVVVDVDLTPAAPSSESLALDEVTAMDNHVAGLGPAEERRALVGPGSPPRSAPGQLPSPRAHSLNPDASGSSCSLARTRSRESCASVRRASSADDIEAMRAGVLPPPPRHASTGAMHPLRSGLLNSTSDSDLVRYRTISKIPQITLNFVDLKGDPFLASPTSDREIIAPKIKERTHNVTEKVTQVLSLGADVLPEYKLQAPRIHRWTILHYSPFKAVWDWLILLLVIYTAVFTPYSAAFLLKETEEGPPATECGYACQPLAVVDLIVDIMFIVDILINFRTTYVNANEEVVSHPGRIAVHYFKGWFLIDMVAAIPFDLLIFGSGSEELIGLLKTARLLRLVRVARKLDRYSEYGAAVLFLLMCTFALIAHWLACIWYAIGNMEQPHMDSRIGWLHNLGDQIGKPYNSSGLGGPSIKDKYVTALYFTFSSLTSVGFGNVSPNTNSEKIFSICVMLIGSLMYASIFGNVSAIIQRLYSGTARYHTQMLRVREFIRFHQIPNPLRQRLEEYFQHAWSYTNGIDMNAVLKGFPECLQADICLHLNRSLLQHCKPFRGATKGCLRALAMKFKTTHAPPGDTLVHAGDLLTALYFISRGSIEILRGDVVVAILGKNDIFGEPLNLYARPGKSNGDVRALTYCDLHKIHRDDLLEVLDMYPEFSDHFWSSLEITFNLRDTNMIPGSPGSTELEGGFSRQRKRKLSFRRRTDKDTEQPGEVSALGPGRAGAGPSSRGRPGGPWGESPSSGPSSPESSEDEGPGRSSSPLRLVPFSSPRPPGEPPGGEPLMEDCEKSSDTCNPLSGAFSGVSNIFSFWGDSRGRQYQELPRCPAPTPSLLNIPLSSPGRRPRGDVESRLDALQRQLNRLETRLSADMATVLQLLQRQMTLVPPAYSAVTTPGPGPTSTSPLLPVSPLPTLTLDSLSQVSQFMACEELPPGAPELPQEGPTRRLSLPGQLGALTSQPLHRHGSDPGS

Point of comparison: `O=C(O)C1CC=CCC1C(=O)N1CCN(c2nc(-c3ccccc3Cl)c3cc(Br)ccc3n2)CC1` (stereo not shown), “hERG current change (%, negative = inhibition) at 1uM” value 10.5%. Against it:
- Cc1cccc(-[n+]2c(-c3cccc(Br)c3)[nH]c3nc4ccccc4nc32)c1 — higher, 13.2%
- O=[N+]([O-])c1ccc(C(O)C23CN4CN(CN(C4)C2)C3)cc1 (stereo not shown) — higher, 15.9%
- CC(C)CC(NC(=O)C1CCCN1C(=O)[C@@H](C)NC(=O)OCc1ccccc1)C(=O)NCC(N)=O (stereo partly shown) (Cbz-[dA][ξP][ξL]G-NH2) — lower, 9.32%
- COc1ccc(NS(=O)(=O)c2cc(NC(=O)c3cc(F)c(F)c(F)c3F)ccc2N2CCCC2)cc1 — lower, 8.93%
- Cc1ccc(S(=O)(=O)/N=C/c2ccc(N(C)C)cc2)cc1 — higher, 15.8%
- CCC(C(=O)NC1CCCC1)N(C(=O)Cn1nnc(-c2ccc(C)o2)n1)c1ccc(OC)cc1 (stereo not shown) — lower, 5.86%
- CC1(NC(=O)c2ccccc2)CCN(CCCc2ccccc2)C1=O (stereo not shown) — higher, 10.9%
- COC(=O)c1cc(NC(=O)CN(c2ccc3c(c2)OCO3)S(C)(=O)=O)ccc1Cl — lower, 4.48%
- CCOC(=O)c1c(C=O)c2ccccc2n1Cc1ccccc1 — higher, 10.9%
- COc1ccc(/C(C)=N/NC(=O)CN(c2ccc(OC)cc2)S(=O)(=O)c2ccccc2)cc1 — higher, 14.7%
- Cc1ccc(-c2nc(SCC(=O)Nc3cc(S(=O)(=O)N4CCCCC4)ccc3Cl)n[nH]2)cc1 — lower, 10.2%
- CCOc1ccccc1Nc1nnc(C)c(=O)[nH]1 — lower, 9.41%
- Cn1c(O)c(N=NC(=O)CNC(=O)c2ccco2)c2ccccc21 — the same, 10.5%
- O=C(N/C(=C\c1cccc(Br)c1)C(=O)N1CCCCC1)c1ccco1 — lower, 8.69%
- CC1(C)OC(=O)C(=Cc2ccc[nH]2)C(=O)O1 — lower, 5.85%
- COc1ccccc1CCc1nnc(CCC(=O)NC(C)Cc2cccnc2)o1 (stereo not shown) — lower, 6.99%
- Cc1ccc(C(=O)Nc2ccc(CN3CCCCC3)cc2)c(C)c1 — lower, -24.5%
- O=C(COc1cccc(Cl)c1)Nc1ccc(N2CCOCC2)cc1 — higher, 19.9%
- O=C(COc1ccc([N+](=O)[O-])cc1)NNC(=O)c1cccnc1 — higher, 14.3%
- COc1ccc(OC)c(/C=N\NC(=O)c2ccc(COc3ccc(C)cc3[N+](=O)[O-])o2)c1 — higher, 17.4%
- CNc1nc(SCC(=O)OC)nc(N2CCOCC2)n1 — lower, 9.12%
- O=C1CCc2cc(S(=O)(=O)NC3CCCCC3)ccc2N1 — lower, -0.715%
- OC1(c2cccnc2)CCN(Cc2nnnn2Cc2ccccc2)CC1 — lower, 9.19%
- COC(=O)C1=C(c2cccc(C#N)c2)C[C@@H]2CC[C@H]1N2C(=O)NCCOc1ccccc1Cl — higher, 13.4%
- Cl.O=C1CC(c2ccccc2)CC2=C1CN(C1CCCCC1)CN2 (stereo not shown) — higher, 17.9%
- O=C(N/C(=C\c1ccco1)C(=O)N1CCC(O)CC1)c1ccccc1 — higher, 19.2%
- CC(Cc1cccs1)NC(=O)Nc1ccc(F)cc1 (stereo not shown) — higher, 21.4%
- CCC(C)NC(=O)NC(=O)CSc1nnc(-c2ccccc2F)n1C1CC1 (stereo not shown) — lower, 3.07%
- Cc1cc(=O)[nH]c(SCCOc2ccc3c(c2)CCC3)n1 — higher, 11.7%
- Cc1cccc(-n2c(=O)[nH]c3c(C(N)=O)nc(-c4ccccc4Cl)nc32)c1 — lower, 6.62%
- O=C1C=C(c2ccc(-c3ccccc3)cc2)C[C@@H](c2ccc(Cl)cc2)C1 — higher, 15.9%
- CCn1c(=O)c(C(=O)CN2CCCc3ccccc32)c(N)n(Cc2ccccc2)c1=O — lower, -1.39%
- CC(=O)N(/N=C/c1ccc(C)cc1)c1nc(CCl)cs1 — lower, 2.73%
- CC(CNCc1ccc2c(c1)OCO2)NCc1ccc2c(c1)OCO2 (stereo not shown) — lower, -17.1%
- COc1ccc(C(CC(=O)[O-])NS(=O)(=O)c2ccc(C)cc2)cc1.[Na+] (stereo not shown) — lower, -8.47%
- COc1ccc(C2SCCN2S(=O)(=O)c2ccc(NC(C)=O)cc2)cc1 (stereo not shown) — lower, 6.12%
- Cc1cc(C)c2oc(-c3ccc(Cl)c(NC(=O)c4ccc(C#N)cc4F)c3)nc2c1 — lower, -3.25%
- O=C(Nc1ccc(-c2ccc3nncn3n2)cc1)C1CCCC1 — lower, 6.28%
- CCOC(=O)C1CCN(CC(=O)Nc2ccc(S(=O)(=O)N3CCC(C)CC3)cc2)CC1 — higher, 12.3%
- Cc1ccc(OCCCC(=O)Nc2ccc(Cl)c(S(=O)(=O)N3CCOCC3)c2)cc1 — lower, 5.04%
- COCc1nnc(NC(=O)CCS(=O)(=O)c2ccccc2)s1 — higher, 15.4%
- CCSc1nnc(NC(=O)C(Cc2ccccc2)n2cccc2)s1 (stereo not shown) — lower, 4.39%
